Experimental data: the supplement of paper PMC8728848
The list shows a part of the results.

Assays:
Assay in all cases: glycan array binding signal (z-score within array); higher = stronger binding
Conditions in all cases: glycan notation: IUPAC condensed, linker removed
Glc(b1-6)Glc = target: Glc(b1-6)Glc
Method in brief: (§1)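 Arrays were curated from the Consortium for Functional Glycomics database, 3228 in total, and kept only where the protein sequence was available. Binding is expressed as a within-array Z-score. This score was averaged across arrays of the same protein sequence at different concentrations or buffers and across linkers, and negative values can be read as non-binding.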

GlcA(b1-3)Gal = target: GlcA(b1-3)Gal
Method in brief: as §1

GlcA(b1-3)GlcNAc = target: GlcA(b1-3)GlcNAc
Method in brief: as §1

GlcA(b1-6)Gal = target: GlcA(b1-6)Gal
Method in brief: as §1

[1] = target: GlcA3S(b1-3)Gal(b1-4)GlcNAc(b1-2)Man
Method in brief: as §1

[2] = target: GlcA3S(b1-3)Gal(b1-4)GlcNAc(b1-3)Gal(b1-4)Glc
Method in brief: as §1

[3] = target: GlcNAc(a1-3)Gal(b1-4)GlcNAc
Method in brief: as §1

[4] = target: GlcNAc(a1-4)Gal(b1-3)GlcNAc
Method in brief: as §1

[5] = target: GlcNAc(a1-4)Gal(b1-4)GalNAc
Method in brief: as §1

[6] = target: GlcNAc(a1-4)Gal(b1-4)GlcNAc
Method in brief: as §1

[7] = target: GlcNAc(a1-4)Gal(b1-4)GlcNAc(b1-3)Gal(b1-4)Glc
Method in brief: as §1

[8] = target: GlcNAc(a1-4)Gal(b1-4)GlcNAc(b1-3)Gal(b1-4)GlcNAc
Method in brief: as §1

[9] = target: GlcNAc(a1-4)Gal(b1-4)GlcNAc(b1-3)Gal(b1-4)GlcNAc(b1-3)Gal(b1-4)GlcNAc
Method in brief: as §1

[10] = target: GlcNAc(a1-4)Gal(b1-4)GlcNAc(b1-3)Gal(b1-4)[Fuc(a1-3)]GlcNAc(b1-3)Gal(b1-4)[Fuc(a1-3)]GlcNAc
Method in brief: as §1

[11] = target: GlcNAc(a1-6)Gal(b1-4)GlcNAc
Method in brief: as §1

[12] = target: GlcNAc(b1-2)Gal(b1-3)GalNAc
Method in brief: as §1

[13] = target: GlcNAc(b1-2)Man(a1-3)[GlcNAc(b1-2)Man(a1-6)]Man(b1-4)GlcNAc(b1-4)GlcNAc
Method in brief: as §1

[14] = target: GlcNAc(b1-2)Man(a1-3)[GlcNAc(b1-2)Man(a1-6)]Man(b1-4)GlcNAc(b1-4)[Fuc(a1-6)]GlcNAc
Method in brief: as §1

[15] = target: GlcNAc(b1-2)Man(a1-3)[GlcNAc(b1-4)][GlcNAc(b1-2)Man(a1-6)]Man(b1-4)GlcNAc(b1-4)GlcNAc
Method in brief: as §1

[16] = target: GlcNAc(b1-2)Man(a1-3)[GlcNAc(b1-4)][GlcNAc(b1-2)Man(a1-6)]Man(b1-4)GlcNAc(b1-4)[Fuc(a1-6)]GlcNAc
Method in brief: as §1

[17] = target: GlcNAc(b1-2)[GlcNAc(b1-4)]Man(a1-3)[GlcNAc(b1-2)Man(a1-6)]Man(b1-4)GlcNAc(b1-4)GlcNAc
Method in brief: as §1

[18] = target: GlcNAc(b1-2)[GlcNAc(b1-4)]Man(a1-3)[GlcNAc(b1-4)][GlcNAc(b1-2)Man(a1-6)]Man(b1-4)GlcNAc(b1-4)GlcNAc
Method in brief: as §1

[19] = target: GlcNAc(b1-2)[GlcNAc(b1-4)]Man(a1-3)[GlcNAc(b1-4)][GlcNAc(b1-2)[GlcNAc(b1-6)]Man(a1-6)]Man(b1-4)GlcNAc(b1-4)GlcNAc
Method in brief: as §1

[20] = target: GlcNAc(b1-2)[GlcNAc(b1-4)]Man(a1-3)[GlcNAc(b1-4)][GlcNAc(b1-2)[GlcNAc(b1-6)]Man(a1-6)]Man(b1-4)GlcNAc(b1-4)[Fuc(a1-6)]GlcNAc
Method in brief: as §1

[21] = target: GlcNAc(b1-2)[GlcNAc(b1-6)]Man(a1-6)[GlcNAc(b1-2)Man(a1-3)]Man(b1-4)GlcNAc(b1-4)GlcNAc
Method in brief: as §1

[22] = target: GlcNAc(b1-2)[GlcNAc(b1-6)]Man(a1-6)[GlcNAc(b1-2)Man(a1-3)]Man(b1-4)GlcNAc(b1-4)[Fuc(a1-6)]GlcNAc
Method in brief: as §1

[23] = target: GlcNAc(b1-2)[GlcNAc(b1-6)]Man(a1-6)[GlcNAc(b1-4)][GlcNAc(b1-2)Man(a1-3)]Man(b1-4)GlcNAc(b1-4)GlcNAc
Method in brief: as §1

GlcNAc(b1-3)Fuc = target: GlcNAc(b1-3)Fuc
Method in brief: as §1

GlcNAc(b1-3)Gal = target: GlcNAc(b1-3)Gal
Method in brief: as §1

[24] = target: GlcNAc(b1-3)Gal(b1-3)GalNAc
Method in brief: as §1

GlcNAc(b1-3)Gal(b1-4)Glc = target: GlcNAc(b1-3)Gal(b1-4)Glc
Method in brief: as §1

[25] = target: GlcNAc(b1-3)Gal(b1-4)GlcNAc
Method in brief: as §1

[26] = target: GlcNAc(b1-3)Gal(b1-4)GlcNAc(b1-2)Man(a1-3)[GlcNAc(b1-3)Gal(b1-4)GlcNAc(b1-2)Man(a1-6)]Man(b1-4)GlcNAc(b1-4)GlcNAc
Method in brief: as §1

[27] = target: GlcNAc(b1-3)Gal(b1-4)GlcNAc(b1-2)Man(a1-3)[GlcNAc(b1-3)Gal(b1-4)GlcNAc(b1-2)Man(a1-6)]Man(b1-4)GlcNAc(b1-4)[Fuc(a1-6)]GlcNAc
Method in brief: as §1

[28] = target: GlcNAc(b1-3)Gal(b1-4)GlcNAc(b1-2)[GlcNAc(b1-3)Gal(b1-4)GlcNAc(b1-6)]Man(a1-6)[GlcNAc(b1-3)Gal(b1-4)GlcNAc(b1-2)Man(a1-3)]Man(b1-4)GlcNAc(b1-4)GlcNAc
Method in brief: as §1

[29] = target: GlcNAc(b1-3)Gal(b1-4)GlcNAc(b1-3)Gal(b1-4)GlcNAc
Method in brief: as §1

[30] = target: GlcNAc(b1-3)Gal(b1-4)GlcNAc(b1-3)Gal(b1-4)GlcNAc(b1-2)Man(a1-3)[GlcNAc(b1-3)Gal(b1-4)GlcNAc(b1-3)Gal(b1-4)GlcNAc(b1-2)Man(a1-6)]Man(b1-4)GlcNAc(b1-4)GlcNAc
Method in brief: as §1

B1: GS13686A-pdi-553-26-553 (Parabacteroides distasonis) (protein)
chain: NENPDKPTDDVNYNMNEPRLASTLRGGLIIEGNVEQRLKPLQIDFYSQMTVDGGGWGTKNYIQDDEWNNLVWEEYLKQIASINIVIRSLTEKDKDAYANTIAFARIWRVYVHTLAADKFGPMPFPAYEIVEANPPYKSLKDIYDEYFRELDAAINGFNDSAQPIFSDAGIDLIYKNDVSKWKRFANSLRLRLAVRLTEVDQEKCIAEANAAISSPAGLISDKADNAYMPPKADGSWGQDYNYTMFQITWSGPICMSKSVEKLVTNIGGVAWPQGVVNQTSGVAVSSVHPEKVDPRAPKIFQPGIENGDWKGLVYGPKAEEANTGIYQSKQCAELGFIIKDGYPYKSRPYDLFLSEEVHFLKAELYARGFIAGDAKSEYEAGVRASFATWGVTSEVDDYLTSTEKNEAGTSARYDDQQGAGNTALEKIITQKYIAGIPDLAQEGWNDKRRLNLPRLDVAVYRDQAVYNNNDKDILKSANFIKRMRYPTKESLINATEYEKGKSMLGGKGDIVSTPLWWDKNSNYCTSSK
With B1 the “glycan array binding signal (z-score)” value (Glc(b1-6)Glc) was -0.053, the “glycan array binding signal (z-score)” value (GlcA(b1-3)Gal) was -0.112 and the “glycan array binding signal (z-score)” value (GlcA(b1-3)GlcNAc) was -0.083. For the same binder, the “glycan array binding signal (z-score)” value (GlcA(b1-6)Gal) was -0.199, the “glycan array binding signal (z-score)” value [1] was 0.201 and the “glycan array binding signal (z-score)” value [2] was -0.392. For the same binder, the “glycan array binding signal (z-score)” value [3] was -0.48, the “glycan array binding signal (z-score)” value [4] was -0.255 and the “glycan array binding signal (z-score)” value [5] was -0.313. For the same binder, the “glycan array binding signal (z-score)” value [6] was -0.164, the “glycan array binding signal (z-score)” value [7] was -0.345 and the “glycan array binding signal (z-score)” value [8] was -0.312. The “glycan array binding signal (z-score)” value [9] was -0.146, the “glycan array binding signal (z-score)” value [10] was 0.871 and the “glycan array binding signal (z-score)” value [11] was -0.427. For the same binder, the “glycan array binding signal (z-score)” value [12] was -0.335, the “glycan array binding signal (z-score)” value [13] was -0.274 and the “glycan array binding signal (z-score)” value [14] was -0.3. The “glycan array binding signal (z-score)” value [15] was -0.205, the “glycan array binding signal (z-score)” value [16] was 0.181 and the “glycan array binding signal (z-score)” value [17] was -0.129. The “glycan array binding signal (z-score)” value [18] was -0.077, the “glycan array binding signal (z-score)” value [19] was -0.24 and the “glycan array binding signal (z-score)” value [20] was -0.179. The “glycan array binding signal (z-score)” value [21] was -0.285, the “glycan array binding signal (z-score)” value [22] was 0.175 and the “glycan array binding signal (z-score)” value [23] was 0.141. The “glycan array binding signal (z-score)” value (GlcNAc(b1-3)Fuc) was -0.21, the “glycan array binding signal (z-score)” value (GlcNAc(b1-3)Gal) was -0.394 and the “glycan array binding signal (z-score)” value [24] was -0.329. The “glycan array binding signal (z-score)” value (GlcNAc(b1-3)Gal(b1-4)Glc) was -0.215, the “glycan array binding signal (z-score)” value [25] was -0.296 and the “glycan array binding signal (z-score)” value [26] was -0.085. The “glycan array binding signal (z-score)” value [27] was -0.069, the “glycan array binding signal (z-score)” value [28] was 0.632 and the “glycan array binding signal (z-score)” value [29] was -0.028. For the same binder, the “glycan array binding signal (z-score)” value [30] was 0.227.
